Drawing on PubChem BioAssay AID1240 (Sanford-Burnham Center for Chemical Genomics, 2008), this text covers displacement for 109 molecules.

The structures appear in SMILES notation. Among all 50,000 compounds or so, about 800 (1.6%) showed an effect of 50% or more. This is one part of the list.

In the test the target is Bcl-2-like protein 10 (Homo sapiens) (UniProt Q9HD36). Briefly: Phenotype converters, Bcl-B/TR3 peptide binding displacement, primary biochemical FP (AID 1240).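 Further: 0% = Bcl-B with tracer peptide and DMSO and 100% = tracer peptide lacking Bcl-B.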 Conditions: GST-Bcl-B / FITC-TR3 peptide fluorescence polarization; stronger effect = higher value; compound at 3.75 mg/L. For orientation: Polarisation of emitted light reports the rotation of a fluorescent probe.
Sequence of UniProt Q9HD36 (Q9HD36 whole entry, looked up): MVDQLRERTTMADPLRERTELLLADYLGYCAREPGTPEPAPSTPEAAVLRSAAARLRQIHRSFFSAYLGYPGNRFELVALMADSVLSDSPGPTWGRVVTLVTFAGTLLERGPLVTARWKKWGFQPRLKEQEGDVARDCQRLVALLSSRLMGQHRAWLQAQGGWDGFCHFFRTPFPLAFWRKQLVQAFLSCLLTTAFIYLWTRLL
Consider `O=C1Nc2ccc(Br)cc2C12NN=C(c1ccccc1)S2` (centres undefined), for which the displacement is -8%.

`CCCn1c(/N=C/c2ccccc2O)nc2ccccc21`: the displacement turned out to be 10.9%. `COc1ccc(/C=C(\NC(=O)c2ccc([N+](=O)[O-])cc2)C(=O)NCCN2CCOCC2)cc1`: the displacement is 6.8%.

Turning to `COC(=O)c1ccccc1NC(=O)CN(c1ccc(C(C)C)cc1)S(=O)(=O)c1ccccc1`, the displacement is 1.1%. `O=C1c2ccccc2C(=O)N1CCCc1nc2ccccc2c(=O)n1-c1nccs1`: the displacement was 2.1%. As for `CC1(C)CC(=O)C2=C(C1)c1c(ccc3ccccc13)NC2c1ccccc1[N+](=O)[O-]` (centres undefined), the figure is 37.3%; as for `CCOc1ccc(N(CC(=O)Nc2ccc(OC)c(OC)c2)S(=O)(=O)c2ccc(SC)cc2)cc1`, 9.6%. As for `COc1ccc(N(CC(=O)NC(C)(C)C)S(=O)(=O)c2ccc(C)cc2)cc1OC`, the figure is 6.6%; as for `CCOc1ccc(/C=C2\C(=O)NC(=S)N(c3ccccc3C)C2=O)cc1Cl`, 16.6%; as for `Cc1ccc(S(=O)(=O)Nc2cc(Cl)ccc2Cl)c(C)c1`, 10%.

Consider `COC(=O)c1ccc(NC(=S)NC(=O)c2ccn(C)n2)cc1`, for which the displacement was -6.9%. As to `CSc1nc2sc3c(c2c2nnnn12)CCN(C)C3`, the displacement is 13.5%. Consider `Cc1cc(C)n(-c2cc(N/N=C/c3cccc(Cl)c3)nc(C)n2)n1`, for which the displacement was -8.5%. As for `COc1ccc(CN2CCN(Cc3ccccc3Cl)CC2)c2ccccc12`, the figure is -1.7%; as for `Cc1ccc(C2=C/C(=C\c3cc([N+](=O)[O-])ccc3Cl)C(=O)O2)cc1`, 7.7%. As for `NC1=NC(=O)/C(=C/c2cc(Br)ccc2OCc2ccccc2)S1`, the figure is 47.9%; as for `NC(=S)n1[nH]c(-c2ccccc2)c(N=Nc2ccc(C(=O)O)cc2)c1=O`, -7.8%; as for `CCC1(C)CC(CCNCc2ccc(F)cc2)(c2ccc(C)cc2)CCO1` (centres undefined), -10.3%. As for `CCOc1cc(/C=N/Nc2nc(N3CCOCC3)nc(N3CCOCC3)n2)ccc1OC(=O)c1ccco1`, the figure is 0.9%. As for `Cc1ccc2ncnc(Nc3ccc(Cl)cc3)c2c1`, the displacement was -13.5%. On to `CCSC(C)CC1C/C(=N/O)c2c(CC)noc2C1` (centres undefined), for which the displacement was found to be 2.8%. As for `CC(C)(C)OC(=O)N1N=C(C(F)(F)F)CC1(O)C(C)(C)C` (centres undefined), the figure is 10%; as for `O=C(NCCCN1CCOCC1)c1ccc(Br)cc1`, 3.7%. Consider `CC1CC(Nc2ccccc2)c2ccccc2N1C(=O)c1ccccc1[N+](=O)[O-]` (centres undefined), for which the displacement is -1.1%.

`O=C(CSc1nc2ccccc2s1)Nc1ccc(/C=C/c2ccccc2)cc1`: the displacement is -9.6%. As for `Cc1ccc(C(=O)NNC(=O)c2ccc(O)cc2O)cc1`, the figure is -23.6%; as for `COc1ccc(CCNC(=O)c2c(Cl)ccc(Cl)c2OC)cc1OC`, 57%; as for `COc1ccc(Br)cc1/C=C/C(=O)Nc1cccc(-c2nc3ncccc3o2)c1C`, 95.3%. As for `COc1ccccc1CNCc1cccc(Cl)c1`, the figure is -23.6%; as for `CCOc1cc(/C=N/NC(=O)C(=O)N2CCCC2)ccc1O`, 6.3%. Turning to `Cc1cc(C(=O)NCc2ccc(S(N)(=O)=O)cc2)ccc1[N+](=O)[O-]`, the displacement worked out at 3%. As to `Cc1onc(-c2ccccc2Cl)c1-c1nc(-c2ccncc2)no1`, the displacement turned out to be 36.3%.

Take `O=C1C(=O)N(CC2CCCO2)C(c2ccccc2Cl)/C1=C(/O)c1ccccc1` (centres undefined): the displacement is -11.8%. As for `S=C(NCc1ccc2c(c1)OCO2)Nc1ccccc1`, the figure is -6%; as for `Brc1ccc(-c2nc(-c3ccccn3)no2)cc1`, -11.7%. As for `CCOc1ccc(N(CC(=O)NC(C)C)S(=O)(=O)c2ccc(SC)cc2)cc1`, the figure is 25.9%; as for `Cc1cccc(N2C(=O)S/C(=C/c3cccc([N+](=O)[O-])c3)C2=O)c1`, 14.3%. As for `CCOc1ccc(NC(=O)c2cccc3c(Br)cccc23)cc1`, the figure is -7.6%; as for `CCOc1ccc2oc(C)c(C(=O)OCCOC)c2c1`, 9.3%.

Consider `COc1ccc(-c2nn(CN3CCOCC3)c(=S)n2-c2ccccc2)cc1`, for which the displacement was found to be 9.1%. As for `COc1ccc(C(=O)CN2CCN(C(=O)C3CC3)CC2)cc1`, the figure is 8.5%. As for `COc1ccc(C(=O)Oc2cccc3cccnc23)cc1OC`, the figure is 1.9%; as for `Cc1ccc(S(=O)(=O)N(Cc2ccccc2)c2ccccc2C(=O)N2CCOCC2)cc1`, 11.6%; as for `O=C(c1ccccc1SCc1ccc(F)cc1)N1CCOCC1`, -9.3%. As for `COc1ccc(Cl)cc1C(=O)N1CCN(c2cccc(C)c2C)CC1`, the figure is 1.6%; as for `C/C(=N\NC(=O)CCC(=O)O)c1c(-c2ccccc2)c2cc(Cl)ccc2[nH]c1=O`, -3.1%; as for `COc1ccc(/C(C)=N/N2C(=O)c3ccccc3C2=O)c(OC)c1`, -8.2%. Turning to `O=C(NC(NC(=O)c1ccco1)c1ccc(Br)cc1)c1ccco1`, the displacement worked out at 1.7%. As for `CCC(=O)N/C(N)=N\c1nc(C)c2cc(C)cc(C)c2n1`, the figure is 14.6%; as for `O=C(NNc1ccc(F)cc1)C(O)(c1ccccc1)c1ccccc1`, 3.2%. As for `CS(=O)(=O)N(CC(=O)NCc1cccnc1)c1ccc(Cl)cc1`, the figure is 12.3%; as for `CCCc1nc2ccccc2n1CC(O)COc1ccc(C)cc1` (centres undefined), -35.6%; as for `O=S1(=O)CCC(NC(=S)SCc2ccccc2Br)C1` (centres undefined), 9.2%.

With `S=C1NC2=C(C(c3ccc(Cl)cc3Cl)N1)N1CCC2CC1` (centres undefined), the displacement is 4.2%. Turning to `COc1cc(/C=C2\SC(N)=NC2=O)cc(I)c1OCc1ccc(Cl)cc1Cl`, the displacement worked out at 1.1%.

As for `CC(=O)Nc1ccc(S(=O)(=O)/N=C2/NC(=O)/C(=C\c3ccco3)S2)cc1`, the displacement turned out to be 19.2%.

Consider `O=c1oc2cc(OCCO)ccc2c2c1CCCC2`, for which the displacement is -5.8%. As for `CN1C(=O)NC(=O)/C(=C/c2ccc(-c3ccc(Cl)cc3)o2)C1=O`, the figure is 37%; as for `O=C(O)c1cccc(CP(=O)(c2ccccc2)c2ccccc2)c1`, 3.3%. Take `Oc1ccc2ccccc2c1C=NN1CCN(Cc2ccccc2Cl)CC1`: the displacement is -13.4%. As for `O=C(COc1ccc([N+](=O)[O-])cc1)Nc1ccc(NC(=O)c2cccc(Cl)c2)cc1`, the figure is -16.4%. `CC(=O)N1CCN(CC(C)(C)NS(=O)(=O)c2ccccc2)CC1`: the displacement was 8.5%. For the molecule `CC(=O)c1cccc(Nc2cc(C)nc3ncnn23)c1`, the displacement worked out at 9.1%.

As for `O=C1C2C(C(=O)N1c1ccccc1)C1(c3ccccc3)C(=O)C2(c2ccccc2)C(c2ccccc2)=C1c1ccccc1` (centres undefined), the displacement stood at 1.8%. As for `CCc1ccc(NC(=O)CN2C(=O)c3ccccc3C2=O)cc1`, the figure is 10.1%. As for `COc1ccc(/C=C2\CCOC2=O)cc1`, the figure is 0.5%; as for `Cc1n[nH]c(=S)n(/N=C/c2ccc3c(c2)OCO3)c1=O`, 7.4%; as for `COc1ccc(NC(=O)/C=C/c2ccc3c(c2)OCO3)c([N+](=O)[O-])c1`, 13.5%.

In the case of `O=C1CC(Sc2ncn[nH]2)C(=O)N1c1ccc(I)cc1` (centres undefined), the displacement was -7.2%. As for `COc1cc(OC)cc(C(=O)Nc2sc3c(c2C(N)=O)CCC(C)C3)c1` (centres undefined), the figure is 22.7%; as for `COc1ccccc1/C=C(/NC(=O)c1ccccc1)c1nc2ccccc2o1`, 1.2%; as for `CCOc1ccc2c(c1)-c1c(ssc1=S)C(C)(C)N2C(=O)CN1C(=O)c2ccccc2C1=O`, -0.9%. Regarding `O=C(Nc1nccs1)c1ccc2c(c1)C(=O)N(C1CCCCC1)C2=O`, the displacement was -0.3%. Take `COc1ccc(NC(=S)NC(=O)c2ccc(Br)cc2)cc1`: the displacement turned out to be 9.5%. As for `N/C(=N\OC(=O)c1cccc(Cl)c1)c1ccccc1`, the figure is -11.3%; as for `O=C(NCCOCc1ccccc1)c1ccccc1Cl`, -19.3%. As for `CCN(CC)c1ccc(NC(=O)Cc2ccc(Cl)cc2)cc1`, the figure is 16.6%; as for `O=C(CSc1nc2ccccc2s1)CSc1nc2ccccc2s1`, -8.4%; as for `CCOC(=O)c1[nH]c(=O)[nH]c1CSC1=NC(=O)C(c2ccccc2)C(=O)N1` (centres undefined), -0.1%.

`O=C(O)CCC(=O)N1N=C(c2cccs2)CC1c1cccc([N+](=O)[O-])c1` (centres undefined): the displacement worked out at 10.7%. As for `O=C1N/C(=N/N=C/c2ccccc2O)SC1Cc1cc(Cl)ccc1Cl` (centres undefined), the figure is 5.6%.

Turning to `COc1ccc(/C=N/Nc2nc(Nc3ccccc3)nc(N3CCOCC3)n2)cc1Br`, the displacement amounted to 0.3%.

With `O=C(Nc1ccc(F)cc1F)c1cccc(F)c1`, the displacement is -3.5%.

Take `COCCCNC(=O)c1ccccc1C`: the displacement amounted to 2.1%. As for `COc1cc(CN2CCN(S(C)(=O)=O)CC2)cc(OC)c1O`, the figure is -5.1%; as for `COc1cc(/C=C(\C#N)c2nc3ccccc3[nH]2)cc(Cl)c1O`, -102%; as for `CC(C)NNC(=O)c1nc(-c2ccccc2)cc(-c2ccccc2)n1`, -4.9%.

With `CCC(=O)CC(c1ccccc1)C1C(=O)NC(=O)NC1=O` (centres undefined), the displacement stood at 3.4%. As for `Cc1ccc(S(=O)(=O)NN2C(=O)/C(=C/c3cccc4ccccc34)SC2=S)cc1`, the figure is 12.4%.

As for `COc1cc(NC(=O)c2ccc(OC)c(OC)c2)ccc1NC(=O)c1ccco1`, the displacement came out at 10.5%. As for `CCOc1ccc(C(=O)Nc2cc(C(F)(F)F)ccc2Cl)cc1Br`, the figure is -10.7%; as for `Cc1cc(C(=O)O)ccc1-n1c(C)ccc1C`, 81.4%. As for `Cc1ccc(C2/C(=C(\O)c3ccc([N+](=O)[O-])cc3)C(=O)C(=O)N2CCCCCC(=O)O)cc1` (centres undefined), the figure is -3.5%. As for `O=C(N/N=C\c1ccccc1C(F)(F)F)c1n[nH]c2c1CCCC2`, the figure is -9.9%; as for `Cc1ccc(C)c(NS(=O)(=O)c2ccc3c(c2)C(=NO)c2cc(S(=O)(=O)Nc4cc(C)ccc4C)ccc2-3)c1`, 5.4%; as for `COc1cccc(C2Nc3ccccc3NC3=C2C(=O)CC(c2cccs2)C3)c1OC` (centres undefined), 5.9%. For the molecule `CCOc1ccc2nc(SCC(=O)Nc3cc(Cl)ccc3C)sc2c1`, the displacement was found to be 7.2%. As for `O=C(COc1ccccc1)Nc1cccc(NC(=O)c2ccc(Cl)cc2Cl)c1`, the figure is -0.3%; as for `O=C1c2ccccc2/C(=N/Nc2ccc([N+](=O)[O-])cc2)C1c1cc(Br)ccc1[N+](=O)[O-]` (centres undefined), 2.9%; as for `OCc1nc2ccccc2n1CCOc1ccccc1`, -3.5%. As for `Cc1ccc(CNC(=O)C(=O)NCc2ccco2)cc1`, the figure is -3.9%. As for `COC(=O)c1cc(-c2cccc([N+](=O)[O-])c2)nc2ccccc12`, the figure is 4.3%; as for `O=C(NCc1ccncc1)c1ccc(I)cc1`, 10.7%; as for `Cc1ccc(OCC(=O)Nc2ccc3oc(-c4cccnc4)nc3c2)cc1C`, 12.6%.

`COc1ccc(NS(=O)(=O)c2ccc(OC)c(OC)c2)cc1`: the displacement is 11.8%.

For `CCOC(=O)C1=C(C)N=c2s/c(=C\c3cc(OC)c(OC)cc3[N+](=O)[O-])c(=O)n2C1c1cccc(OC)c1` (centres undefined), the displacement is -8.4%.

As to `O=C(NCc1cccnc1)c1cccc(S(=O)(=O)N2CCCCC2)c1`, the displacement was 2.2%. As for `CCCNC(=O)c1sc2ccccc2c1Cl`, the figure is -1.5%; as for `Cc1ccccc1N1CC(C(=O)OCC(=O)c2ccc(Br)cc2)CC1=O` (centres undefined), 2.7%.
